Laboratory results published in PubChem BioAssay AID493208 (National Center for Advancing Translational Sciences (NCATS), 2011).
The whole screen tested about 44,000 compounds, of which about 340 (0.77%) were called active. Another 5% or so got no clear call; they are omitted. The call rests on the fitted dose curve; in most records, active means well fitted inhibition curve with a large enough effect; inconclusive means small, poorly fitted or top-dose-only effect; inactive means flat fitted curve, though single readings scatter. The list shows a part of the results.

assay: Acumen qHTS Assay for Inhibitors of the mTORC1 Signaling Pathway in MEF (Tsc2-/-, p53-/-) Cells: Sytravon; conditions: phospho-rpS6 immunofluorescence/PI, 24 h; series mostly up to 38.3 µM; activity change, negative = inhibition: at the top concentration;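 further: plate controls were DMSO for no effect and rapamycin for full effect; nearly all actives have a fitted effect of over 50% in size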
Procedure, shortened: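 Tsc2-/-, p53-/- mouse embryonic fibroblasts (empty-vector line) exposed to compound 24 hrs at 37 C, fixed, immunostained for phospho-rpS6 and counterstained with propidium iodide. Acumen laser scanning gives % positive cells from Alexa 488/PI ratio, thresholded using 7.5 nM rapamycin; PI count gives viability.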

Activity change, negative = inhibition, inactive:
O=C(NCc1cccc(Cl)c1)c1oc(=O)c2ccccc2c1-c1ccccc1 0.804%
Cc1nn(CCCC(=O)NCCc2ccc(Cl)cc2)c(=O)c2nn(-c3ccccc3)c(C)c12 0.174%
COc1ccc(C2CC(=O)c3cc(-c4nc(-c5cccc([N+](=O)[O-])c5)cs4)c(=O)n(-c4ccccc4C)c3C2)cc1 (stereo not given) 1.33%
CCn1c(=O)c(C(=O)Nc2cc(OC)c(OC)c(OC)c2)nc2ccccc21 0.657%
O=C(NCc1ccccc1F)c1cccc(NC(=O)N2CCSc3ncccc32)c1 0.0274%
Cc1ccc(-c2cc(NC(=O)COc3c(C)cc(C)cc3C)on2)cc1 -0.817%
COc1ccccc1C(=O)NCCc1csc(-c2ccc(C(F)(F)F)cc2)n1 -15.1%
COc1cc(NC(=O)Cn2c(=O)n(CC3CCCO3)c(=O)c3cc(OC)c(OC)cc32)cc(OC)c1 (stereo not given) 0.985%
CCc1ccc(C2CC(=O)N(c3cccc(C(F)(F)F)c3)C3=C2C(=O)OC3)cc1 (stereo not given) -4.2%
CCOCCc1nn2c(=O)cc(COC(=O)c3ccc(NC(=O)c4ccc(F)cc4)cc3)nc2s1 -7.4%
Cc1ccc(C)c(NC2=C(c3ccc(C(F)(F)F)cc3)C(=O)c3ccccc32)c1 -11%
CC(=O)N1CCc2cc(CNC(=O)Nc3ccccc3C(F)(F)F)ccc21 -2.37%
Cc1cccc(Cn2nnc3c(=O)[nH]c(C4CCCN(C(=O)c5ccc(C(C)(C)C)cc5)C4)nc32)c1 (stereo not given) -1.24%
CCCN1CCCc2cc(CN(CCCN3CCOCC3)C(=O)Nc3ccc(OCC)cc3)ccc21 -13.1%
COc1ccc2c(CNC3CCC(C)CC3)c(C(=O)O)n(Cc3ccccc3)c2c1 (stereo not given) 1.95%
Cn1c2ccccc2c2c(C(=O)N3CCN(c4cccc(C(F)(F)F)c4)CC3)cn(C3CCCCC3)c(=O)c21 2.46%
CCOc1ccccc1CNC(=O)C1CCN(Cc2cc3ccccc3n2Cc2ccccc2)CC1 -9.52%
Cc1ccc(-c2cn3nc(N4CCC(C(=O)Nc5ccccc5C)CC4)sc3n2)cc1 8.06%
Cc1ccc2oc(C(=O)Nc3ccc(S(=O)(=O)Nc4ncccn4)cc3)cc(=O)c2c1 0.856%
CN(C)S(=O)(=O)N(CC(=O)NCCSc1ccc(Cl)cc1)c1ccccc1 2.86%
CCC(C(=O)Nc1cc(OC)ccc1OC)n1nc(-c2ccccc2)c2c(c1=O)CCCC2 (stereo not given) -19.7%
COc1cc2nc(NC(=O)c3ccc(S(=O)(=O)N4CCCC4)cc3)sc2cc1OC -11.2%
O=C(COCc1cc(-c2ccc3c(c2)OCO3)on1)N1CCN(c2cccc(C(F)(F)F)c2)CC1 0%
CCCS(=O)(=O)c1nc(S(=O)(=O)c2ccc(C)cc2)c(NC(C)c2ccccc2)s1 (stereo not given) -10.7%
CN1C(C(=O)NC(C)(C)C)=CC(c2ccc3c(c2)OCO3)=NS1(=O)=O -1.47%
COc1cccc(NS(=O)(=O)c2ccc3[nH]cc(C(=O)NCCc4ccc(C)cc4)c(=O)c3c2)c1 1.83%
Cc1cc(C)c2oc(C(=O)Nc3nc4ccc(Cl)cc4s3)cc(=O)c2c1 4.7%
Cc1ccc(-n2ccnc(NCc3cccs3)c2=O)cc1C -4.94%
Cc1cccc(Cn2c(SCc3ccc(C(=O)NCc4ccccc4F)cc3)nc3cccnc32)c1 -12.4%
CCC(=O)N1CCc2cc(S(=O)(=O)NCCC(=O)Nc3cccc(SC)c3)ccc21 -10.8%
O=C(COc1ccccc1F)Nc1ccc2nc(SCc3ccccc3)sc2c1 1.41%
COc1ccc2oc(=O)c(-c3nc4ccc(C)cc4[nH]3)cc2c1 -4.65%
CCOC(=O)c1cc(-c2ccc(F)cc2)n(CCC(=O)NCc2ccc(C)cc2)c1C -15.6%
COc1ccc(Br)cc1CC1C(=O)Nc2ccccc21 (stereo not given) -27.3%
CN(C(=O)NCc1noc2ccccc12)c1cccc(Cl)c1 -4.73%
COc1ccccc1NC(=O)C1=C(C)Nc2nc(SCc3ccccc3Cl)nn2C1c1cccnc1 (stereo not given) -24.9%
Cc1ccc2c(c1)sc1nc(=O)n(-c3cccc(Cl)c3)c(=O)n12 -12%
CCCN1C(C(=O)c2ccccc2)=C(OC(=O)C(C)(C)C)c2ccccc2S1(=O)=O -7.94%
Cc1ccc(NC(=O)CN2CCN(C3CCCCC3)C(=O)C2=O)cc1C 0%
Cc1ccc(NC(c2cccc(Cl)c2)c2nnc(-c3ccccc3)o2)cc1F (stereo not given) 0.493%
CCOC(=O)C1CCN(C(=O)Cn2nc(CC)n3c(cc4occc43)c2=O)CC1 -14.5%
CCCCc1nn2c(C)c(-c3ccc(OCC)cc3)nc2s1 -9.36%
Cc1cc(Cl)ccc1NS(=O)(=O)c1cc2[nH]c(=O)c(=O)[nH]c2cc1C -0.195%
Cc1ccc(-n2c(=O)[nH]c3sc4c(c3c2=O)CCNC4)cc1C 4.7%
O=C(Cn1ncc2c3ccccc3n(Cc3cccc(Cl)c3)c2c1=O)N1CCCCC1 1.29%
COc1ccc(CN2C(=O)c3ccccc3C2C(=O)NC2CCCCCC2)c(OC)c1 (stereo not given) -0.725%
CCc1ccc(-c2nn(CC(=O)NC3CCCCC3)c3c2cnc2ccc(OC)cc23)cc1 -12.2%
COc1ccc(CC(=O)Nc2sc3c(c2C(=O)Nc2c(C)cccc2C)CCCCC3)cc1 -2.14%
COc1ccc(NC(=O)CSC2=Nc3ccccc3C3=NC(CC(=O)NCc4ccc(F)cc4)C(=O)N23)cc1 (stereo not given) -1.1%
Cc1ccc(Cl)cc1NC(=O)C(=O)NCCc1sc(-c2ccc(F)cc2)nc1C 0.983%
COc1cccc(NC(=O)/C(C#N)=C\c2cn(Cc3ccc(Cl)cc3)c3ccccc23)c1 7.44%
COc1ccc(CNC(=O)Cn2c(=O)oc3cc(S(=O)(=O)N4CCCC4)ccc32)cc1 -8.22%
CCCOc1ccc(C(=O)Nc2c(C(=O)c3ccc(C)cc3)oc3ccccc23)cc1 -15.6%
Cc1cc(C(F)F)n2nc(C(=O)Nc3ccc(F)c(Cl)c3)nc2n1 -7.54%
Cc1ccc(Cl)cc1N1CCN(C(=O)c2ccc(C)c(-n3c(C)nc4cccnc43)c2)CC1 -2.97%
CCc1nc2ccc(C(=O)N3CCN(c4ccc(Cl)cc4)CC3)cc2nc1CC 2.28%
CCCCc1ccc(C(=O)N/C(=C\c2ccc(C)cc2)C(=O)NC2CCCCC2)cc1 4.45%
COc1ccc2c(C)c(CCC(=O)NCCc3ccc(Cl)cc3)c(=O)oc2c1 5.64%
COc1cccc(Nc2nc(-c3ccccc3)c3cc(C)ccc3n2)c1 7.95%
Cc1cccc(CNC(=O)c2ccc(Cn3c(=O)c4cccn4c4cccnc43)cc2)c1 5.53%
O=C(CC1N=C2c3ccccc3N=C(SCc3ccccc3F)N2C1=O)NCc1cccs1 (stereo not given) -0.837%
COc1cc(C2CC(=O)Nc3c2c(=O)nc2c(C)cccn32)cc(OC)c1OC (stereo not given) -4.95%
CC1CCCCN1S(=O)(=O)c1ccc2c(c1)oc(=O)n2CC(=O)Nc1ccc(Cl)cc1 (stereo not given) -7.48%
Cc1ccc(NC(=O)C(Cc2ccccc2)NS(=O)(=O)c2cccc3nsnc23)c(C)c1 (stereo not given) -10.9%
Cc1nn2c(-c3cccc(NC(=O)c4ccc(Cl)cc4)c3)nnc2c2ccccc12 -2.08%
CCS(=O)(=O)N1CCc2cc(C(=O)Nc3cc(Cl)ccc3C)ccc21 0.573%
CCn1c(=O)n(CC)c2cc(N3CCCCC3)c(NC(=O)Nc3cc(Cl)ccc3OC)cc21 3.2%
CC(C)C(=O)Nc1ccc2nc(SCCOc3ccccc3)sc2c1 -0.201%
CCOC(=O)c1c(C)[nH]c(CCC(=O)Nc2ccccc2C(=O)OC)c1C -0.573%
COc1ccc(-n2c(-c3ccco3)nc3c(cnn3-c3ccc(C)cc3)c2=O)cc1 -5.62%
Cc1ccc(N2CCN(C(=O)c3cn(C)c4ccc(S(=O)(=O)N(C)C5CCCCC5)cc4c3=O)CC2C)cc1 (stereo not given) -0.0036%
COc1ccc(CCNC(=O)CCS(=O)(=O)c2ccc3c(c2)oc(=O)n3C)cc1OC 4.22%
O=C(Nc1ccc2nn(-c3ccccc3)nc2c1)c1ccc(-c2cccc(Cl)c2)o1 -14.4%
CCOc1ccc(NS(=O)(=O)c2ccc(NC(=O)N3CCCC3)cc2)cc1 -0.644%
O=C(CSc1nnc(CNC(=O)c2c(F)cccc2Cl)o1)Nc1cccc(F)c1 -14.1%
O=C(c1cccs1)N1CCCc2cc(NS(=O)(=O)c3ccc(F)cc3)ccc21 -5.95%
COCCCNC(=O)CCc1c(C)nc2cc(-c3ccc(Cl)cc3)nn2c1C -16.9%
COc1ccccc1NC(=O)C1=C(C)Nc2nc(SCc3cc(C)ccc3C)nn2C1c1ccccc1 (stereo not given) -2.69%
O=C(c1ccc2c(=O)n(CCc3ccccc3)c(=O)[nH]c2c1)N1CCN(c2ccc(Cl)cc2)CC1 -9.92%
CCn1c(C)c(C)c2cc(C(=O)NCCc3ccc(C)cc3)ccc21 -0.454%
O=C1CC(c2ccc(Cl)cc2)N=C(NC(=O)c2ccccc2)N1 (stereo not given) -6.08%
Cc1ccccc1CS(=O)(=O)Cc1ccc(C(=O)NCc2ccc(F)cc2)o1 2.48%
COc1cccc(NC(=O)CCNC(=O)Cn2ccc3ccccc3c2=O)c1 10.2%
Cc1ccc(C)c(NC(=O)c2cc(=O)c3cc(C)cc(C)c3o2)c1 0.0842%
Cc1ccc(NC(=O)Cn2c(=O)ccc3cc(S(=O)(=O)N4CCC(C)CC4)ccc32)cc1Cl -0.31%
CC(C)C(=O)OCc1cc(=O)n2nc(C3CCCCC3)sc2n1 -5.05%
COCCNc1ncnc2c1c(-c1ccccc1)cn2-c1cccc(Cl)c1 -2.85%
Cc1ccc(NC(=O)CSc2nnc(N)s2)c(C)c1 -20.3%
COc1ccc(CNC(=O)C2CCN(S(=O)(=O)c3cccc4nonc34)CC2)cc1OC -0.0191%
CCc1ccc(NCc2cc3cc4c(cc3n(CC(=O)Nc3ccc(F)cc3)c2=O)OCCO4)cc1 -18.3%
Cn1ccnc1SCC(=O)Nc1cc(Cl)ccc1Cl 3.23%
CCCCNC(=O)CCc1c(C)nc2c(c(C)nn2-c2ccccc2)c1C 4.11%
CCN(CC)c1ccc(C2C(C(N)=O)=C(C)Nc3ncnn32)cc1 (stereo not given) 1.23%
Cc1ccc(NC(=O)C2CCCN2S(=O)(=O)c2cccc3cccnc23)cc1C (stereo not given) 1.04%
COc1cccc(OCc2nc3ccccc3n2CCOc2cccc(C)c2)c1 4.9%
